Laboratory results from the supplement of paper PMC4967469.
A lower IC50 marks a more sensitive line; a limit (>, <) means that the fit lies beyond the doses tested. The AUC spans the tested range (256-fold, ending at the top dose) of the same fit; it is 1 without any effect and falls as sensitivity rises. For part of these data: Where the top dose is marked as inferred, it comes from the curve model; the source does not state it.

Tests used:
Test in all cases: Viability of human cancer cell lines after 72 h of drug (GDSC screen)
[1] = compound: C=CC(=O)Nc1cc(NC(=O)c2ccc(C)c(NC(=O)c3ccno3)c2)cc(C(F)(F)F)c1 [QL-XI-92]; conditions: top dose 10.24 µM; top dose inferred
Method: (§1)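 Human cancer cell lines in 384-well plates, medium with 10% serum, drug for 72 h over a 256-fold dose range (nine 2-fold or five 4-fold steps up to the top dose). Adherent lines were fixed and stained with the nucleic acid dye Syto60, suspension lines read with resazurin; signal relative to control wells, capped at 0 and 100%. One two-parameter sigmoid per drug and line, fitted in a mixed model over all curves with the slope shared within a line.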

[2] = compound: COc1cc2ncnc(Nc3ccc(F)c(Cl)c3)c2cc1OCCCN1CCOCC1 [Gefitinib]; conditions: top dose 0.5 µM
Method: as §1

[3] = compound: O=c1cc(CN2CCOCC2)occ1OCCCCCSc1ccnc2cc(C(F)(F)F)ccc12 [EHT 1864]; conditions: top dose 10 µM; top dose inferred
Method: as §1

[4] = compound: CNCc1ccc(-c2[nH]c3cc(F)cc4c3c2CCNC4=O)cc1 [AG-014699]; conditions: top dose 5 µM; top dose inferred
Method: as §1

[5] = compound: O=c1cc(N2CCOCC2)oc2c(-c3cccc4c3sc3ccccc34)cccc12 [NU-7441]; conditions: top dose 2 µM; top dose inferred
Method: as §1

[6] = compound: COc1cc2nccc(Oc3ccc(NC(=O)C4(C(=O)Nc5ccc(F)cc5)CC4)cc3)c2cc1OC [XL-184]; conditions: top dose 5.12 µM; top dose inferred
Method: as §1

[7] = compound: COc1cc2ncnc(Nc3cc(Br)c(O)c(Br)c3)c2cc1OC [WHI-P97]; conditions: top dose 10.24 µM; top dose inferred
Method: as §1

[8] = compound: N=C(N)NC(=N)NCCc1ccccc1 [Phenformin]; conditions: top dose 4000 µM; top dose inferred
Method: as §1

[9] = compound: CCC1=C[C@@H]2CN(C1)Cc1c([nH]c3ccccc13)[C@@](C(=O)OC)(c1cc3c(cc1OC)N(C)[C@H]1[C@@](O)(C(=O)OC)[C@H](OC(C)=O)[C@]4(CC)C=CCN5CC[C@]31[C@@H]54)C2 [Vinorelbine]; conditions: top dose 0.064 µM; top dose inferred
Method: as §1

| Cell Line | AUC [1] | IC50 [1] [µM] | AUC [2] | IC50 [2] [µM] | AUC [3] | IC50 [3] [µM] | AUC [4] | IC50 [4] [µM] | AUC [5] | IC50 [5] [µM] | AUC [6] | IC50 [6] [µM] | AUC [7] | IC50 [7] [µM] | AUC [8] | IC50 [8] [µM] | AUC [9] | IC50 [9] [µM] |
| --- | --- | --- | --- | --- | --- | --- | --- | --- | --- | --- | --- | --- | --- | --- | --- | --- | --- | --- |
| HCC1954 (breast, adherent) | 0.951 | > 10.2 | 0.963 | > 0.5 | 0.939 | > 10 | 0.972 | > 5 | 0.979 | > 2 | 0.983 | > 5.12 | 0.976 | > 10.2 | 0.66 | 751 | 0.616 | 0.00879 |
| HCC-15 (lung squamous cell carcinoma, adherent) | 0.937 | > 10.2 | 0.953 | > 0.5 | 0.924 | > 10 | 0.963 | > 5 | 0.945 | > 2 | 0.967 | > 5.12 | 0.977 | > 10.2 | 0.783 | 2200 | 0.499 | 0.00396 |
| HCC-44 (lung adenocarcinoma, adherent) | 0.923 | > 10.2 | 0.953 | > 0.5 | 0.982 | > 10 | 0.973 | > 5 | 0.874 | 1.88 | 0.868 | 4.5 | 0.966 | > 10.2 | 0.611 | 500 | 0.408 | 0.00226 |
| HCC-56 (large intestine, adherent) | 0.966 | > 10.2 | 0.959 | > 0.5 | 0.975 | > 10 | 0.964 | > 5 | 0.987 | > 2 | 0.948 | > 5.12 | 0.987 | > 10.2 | 0.68 | 808 | 0.705 | 0.0154 |
| HCT-15 (large intestine, adherent) | 0.966 | > 10.2 | 0.983 | > 0.5 | 0.888 | > 10 | 0.985 | > 5 | 0.974 | > 2 | 0.938 | > 5.12 | 0.977 | > 10.2 | 0.725 | 1140 | 0.959 | > 0.064 |
| HEC-1 (endometrium, adherent) | 0.987 | > 10.2 | 0.975 | > 0.5 | 0.946 | > 10 | 0.922 | > 5 | 0.952 | > 2 | 0.989 | > 5.12 | 0.971 | > 10.2 | 0.893 | > 4000 | 0.743 | 0.0193 |
| HGC-27 (stomach, adherent) | 0.932 | > 10.2 | 0.976 | > 0.5 | 0.913 | > 10 | 0.81 | 2.15 | 0.986 | > 2 | 0.911 | > 5.12 | 0.942 | > 10.2 | 0.453 | 190 | 0.354 | 0.00169 |
| HN (head and neck, adherent) | 0.986 | > 10.2 | 0.882 | 0.473 | 0.97 | > 10 | 0.973 | > 5 | 0.976 | > 2 | 0.988 | > 5.12 | 0.984 | > 10.2 | 0.027 | < 15.6 | 0.97 | > 0.064 |
| HO-1-u-1 (head and neck, adherent) | 0.976 | > 10.2 | 0.843 | 0.334 | 0.935 | > 10 | 0.961 | > 5 | 0.969 | > 2 | 0.932 | > 5.12 | 0.987 | > 10.2 | 0.838 | 2550 | 0.901 | > 0.064 |
| HOP-62 (lung adenocarcinoma, adherent) | 0.983 | > 10.2 | 0.987 | > 0.5 | 0.971 | > 10 | 0.987 | > 5 | 0.945 | > 2 | 0.93 | > 5.12 | 0.968 | > 10.2 | 0.706 | 952 | 0.416 | 0.00236 |
| HOS (osteosarcoma, adherent) | 0.991 | > 10.2 | 0.981 | > 0.5 | 0.982 | > 10 | 0.95 | > 5 | 0.952 | > 2 | 0.985 | > 5.12 | 0.989 | > 10.2 | 0.987 | > 4000 | 0.525 | 0.00463 |
| HT55 (large intestine, adherent) | 0.99 | > 10.2 | 0.979 | > 0.5 | 0.99 | > 10 | 0.99 | > 5 | 0.99 | > 2 | 0.988 | > 5.12 | 0.99 | > 10.2 | 0.448 | 180 | 0.979 | > 0.064 |
| HT-3 (cervix, adherent) | 0.967 | > 10.2 | 0.914 | > 0.5 | 0.975 | > 10 | 0.987 | > 5 | 0.97 | > 2 | 0.966 | > 5.12 | 0.971 | > 10.2 | 0.364 | 105 | 0.82 | 0.0374 |
| HT-115 (large intestine, adherent) | 0.99 | > 10.2 | 0.963 | > 0.5 | 0.931 | > 10 | 0.991 | > 5 | 0.989 | > 2 | 0.981 | > 5.12 | 0.991 | > 10.2 | 0.59 | 431 | 0.958 | > 0.064 |
| HT-1197 (bladder, adherent) | 0.984 | > 10.2 | 0.972 | > 0.5 | 0.942 | > 10 | 0.919 | > 5 | 0.983 | > 2 | 0.967 | > 5.12 | 0.96 | > 10.2 | 0.976 | > 4000 | 0.846 | 0.0602 |
